Test results: a compilation of properties of binary mixtures (doi:10.1016/j.cclet.2012.09.020)
Some of these densities may be calculated back from excess volumes.

Experiment: xn = mol fraction of the nth substance listed
Settings: 298.15 K, 101 kPa

CC[n+]1ccn(C)c1.O=[N+]([O-])[O-] + CCO
mass density (x2 = 0): 1208.5 kg/m3
mass density (x2 = 0.2): 1157.2 kg/m3
mass density (x2 = 0.332): 1130.8 kg/m3
mass density (x2 = 0.3996): 1117 kg/m3
mass density (x2 = 0.5): 1089.4 kg/m3
mass density (x2 = 0.6): 1054.8 kg/m3
mass density (x2 = 0.7063): 1009.1 kg/m3
mass density (x2 = 0.799): 958.3 kg/m3
mass density (x2 = 0.9005): 891.3 kg/m3

CCO + CC[n+]1ccn(C)c1.O=[N+]([O-])[O-]
mass density (x1 = 1): 787.9 kg/m3

CO + CC[n+]1ccn(C)c1.O=[N+]([O-])[O-]
mass density (x1 = 1): 791.4 kg/m3

CC[n+]1ccn(C)c1.O=[N+]([O-])[O-] + CO
mass density (x2 = 0): 1208.5 kg/m3
mass density (x2 = 0.1005): 1188.6 kg/m3
mass density (x2 = 0.2004): 1176 kg/m3
mass density (x2 = 0.2997): 1158.2 kg/m3
mass density (x2 = 0.4005): 1144.3 kg/m3
mass density (x2 = 0.501): 1122.4 kg/m3
mass density (x2 = 0.6): 1091.6 kg/m3
mass density (x2 = 0.7): 1054.6 kg/m3
mass density (x2 = 0.8): 1000.7 kg/m3
mass density (x2 = 0.9): 918.4 kg/m3
